Data: patent publication US12384801B2, “Benzothiophene, thienopyridine and thienopyrimidine derivatives for the modulation of sting” (CTXT PTY LTD, priority 2019, dated 2025)

Biological target: human STING (R232H) (Homo sapiens, UniProt Q86WV6)
Test: Differential scanning fluorimetry (DSF), huSTING (R232H)
Assay type: binding
Settings: compound 100 μM, 2 μM protein, Tm with ligand minus Tm of protein alone (1% DMSO)
Procedure: Data were analyzed using “Meltdown analysis” protocol described by Rosa (2015).

Compound `N#Cc1cccc2sc(C(=O)O)c(-c3nc4cc(C(N)=O)ccc4n3CCn3c(-c4c(C(=O)O)sc5cccc(C#N)c45)nc4cc(C(N)=O)ccc43)c12` [Example 17, 3,3′-(Ethane-1,2-diylbis(5-carbamoyl-1H-benzo[d]imidazole-1,2-diyl))bis(4-cyanobenzo[b]thiophene-2-carboxylic acid)] has a ΔTm at 100 µM of -3.79 °C.

In the case of `CCOC(=O)c1sc2cccc(Cl)c2c1-c1nc2c(OC)c(C(N)=O)ccc2n1CCn1c(-c2c(C(=O)OCC)sc3cccc(Cl)c23)nc2c(OC)c(C(N)=O)ccc21` [Example 21, Diethyl 3,3′-(ethane-1,2-diylbis(5-carbamoyl-4-methoxy-1H-benzo[d]imidazole-1,2-diyl))bis(4-chlorobenzo[b]thiophene-2-carboxylate)], the ΔTm at 100 µM is reported as 37.6 °C.

`CCOc1cccc2sc(C(=O)O)c(-c3nc4cc(C(N)=O)ccc4n3CCn3c(-c4c(C(=O)O)sc5cccc(OCC)c45)nc4cc(C(N)=O)ccc43)c12` [Example 24, 3,3′-(Ethane-1,2-diylbis(5-carbamoyl-1H-benzo[d]imidazole-1,2-diyl))bis(4-ethoxybenzo[b]thiophene-2-carboxylic acid)] showed a ΔTm at 100 µM of 0.81 °C.

For `CCOC(=O)c1sc2cccc(Cl)c2c1-c1nc2cc(C(N)=O)ccc2n1CCn1c(-c2c(C(=O)OCC)sc3cccc(Cl)c23)nc2cc(C(N)=O)ccc21` [Example A1, Diethyl 3,3′-(ethane-1,2-diylbis(5-carbamoyl-1H-benzo[d]imidazole-1,2-diyl))bis(4-chlorobenzo[b]thiophene-2-carboxylate)], the ΔTm at 100 µM was 18.9 °C.
